Source: US20160206608A1 (Pfizer Inc., priority 2011, published 2016)

Tested on: 3T3-CD74-ROS tumor xenograft
Test: 3T3-CD74-ROS xenograft tumor growth
Conditions: 20 to 160 mg/kg/day, oral BID

SMILES: C[C@@H](Oc1cc(-c2cnn(C3CCNCC3)c2)cnc1N)c1c(Cl)ccc(F)c1Cl [crizotinib, 3-[(R)-1-(2,6-dichloro-3-fluoro-phenyl)-ethoxy]-5-(1-piperidin-4-yl-1H-pyrazol-4-yl)-pyridin-2-ylamine]
- inhibition in tumor growth (in words): dose-dependent inhibition
